# According to PubChem BioAssay AID588453 (National Center for Advancing Translational Sciences (NCATS), 2011):
# Several values for one entry are separate records, joined by “and”; a condition that tells them apart may be missing. Equal values may be shown once. Among all 390,000 compounds or so, about 4,000 (1%) were called active. Inconclusive results, whose numbers are uncertain, are shown with a selection of clear calls. Calls come from the whole dose curve; as a rule, active = well fitted inhibition curve with a large enough effect; inconclusive = small, poorly fitted or top-dose-only effect; inactive = no such curve, though single readings can be large or run the other way. A potency beside an inconclusive call is a rough fit, not a confirmed value.
# Biological target: Thioredoxin reductase 1, cytoplasmic (Rattus norvegicus) (UniProt O89049)
# Assay: qHTS Assay for Inhibitors of Mammalian Selenoprotein Thioredoxin Reductase 1 (TrxR1): qHTS; note: nearly all actives have a fitted effect of over 65% in size
# Conditions: recombinant rTrxR1, NADPH fluorescence consumption, selenite substrate; series mostly up to 114 µM
# Method in brief: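 Rat TrxR1 (90 nM in the dispensed reagent) was pre-reduced with 400 uM NADPH for 5 min at room temperature, then incubated with compound for 15 min. After 400 uM selenite was added, NADPH fluorescence (Ex 340/Em 450 nm) was followed for 8 min.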
# Potency is the fitted concentration of half-maximal effect; tags give direction and shape of the fitted curve.
# Sequence of UniProt O89049 (O89049 whole entry, looked up): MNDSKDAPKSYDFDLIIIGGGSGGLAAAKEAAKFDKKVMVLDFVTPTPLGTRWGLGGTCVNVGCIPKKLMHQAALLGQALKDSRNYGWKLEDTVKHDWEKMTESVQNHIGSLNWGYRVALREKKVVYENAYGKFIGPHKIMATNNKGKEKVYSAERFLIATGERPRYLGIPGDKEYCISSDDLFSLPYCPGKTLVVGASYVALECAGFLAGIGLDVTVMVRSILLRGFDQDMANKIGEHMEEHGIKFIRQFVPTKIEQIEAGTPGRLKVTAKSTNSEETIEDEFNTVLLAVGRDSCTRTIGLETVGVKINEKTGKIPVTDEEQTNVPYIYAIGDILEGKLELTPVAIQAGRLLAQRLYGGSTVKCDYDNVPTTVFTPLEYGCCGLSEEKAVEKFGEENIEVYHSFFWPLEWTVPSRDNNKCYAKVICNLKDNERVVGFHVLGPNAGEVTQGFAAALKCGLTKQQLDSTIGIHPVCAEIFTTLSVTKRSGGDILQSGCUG
row,Structure (SMILES),Potency
1,CC(C)(C)OC(=O)N1CCC(c2c(C(=O)N3CCN(c4ccccn4)CC3)cnn2-c2cccc(F)c2)CC1,inactive
2,CSc1nc(N)c2ncn([C@@H]3O[C@H](COP(=O)(O)OP(=O)(O)O)C(O)[C@H]3O)c2n1 (stereo not given in full),inactive
3,CC1CCCC(C(=O)O)N1C(=O)CCSSCCC(=O)N1C(C)CCCC1C(=O)O (stereo not given),inactive
4,COC(=O)C1=C(C(=O)OC)C2C(C)=CC(C)=CN2C(C(=O)OC)=C1C(=O)OC (stereo not given),"inconclusive: 79.4 µM [inhibitor, single point]"
5,Clc1ccc(-c2ccc(-c3nn4c(-c5ccco5)nnc4s3)o2)cc1,"inconclusive: 50.1 µM [inhibitor, partial curve]"
6,CC(C)C(=O)Nc1cccc(NC(=S)NC(=O)c2ccc3c(c2)OCO3)c1,"inconclusive: 11.2 µM [inhibitor, full curve]"
7,Cc1cccc(-n2nc3c(c2NC(=O)c2ccco2)CSC3)c1C,"inconclusive: 70.8 µM [inhibitor, partial curve, poor fit]"
8,CC1=NOC(=O)/C1=C\c1ccc(-c2ccc(Cl)c(C(=O)O)c2)o1,"inconclusive: 50.1 µM [inhibitor, partial curve, poor fit]"
9,COCCn1nnnc1C(c1ccc(OC)cc1OC)N1CCN(c2ccccc2F)CC1 (stereo not given),inactive
10,Fc1ccc(-n2c(-c3ccc4ccccc4n3)n[nH]c2=S)cc1,"inconclusive: 25.1 µM [inhibitor, single point]"
11,CCCC(=O)Nc1ccc2c(c1)nc1n2CCN(CCOC)C1,"inconclusive: 35.5 µM [inhibitor, single point]"
12,Cc1ccc(S(=O)(=O)N2CCCN(S(=O)(=O)c3ccc4c(c3)OCCO4)CC2)cc1,inactive
13,COc1ccc(C(=O)NC(=S)Nc2ccc(CN3CCOCC3)cc2)cc1OC,"inconclusive: 39.8 µM [inhibitor, partial curve]"
14,O=C(COc1ccc(Br)cc1Br)NN1C(=O)c2ccccc2C1=O,"inconclusive: 89.1 µM [inhibitor, partial curve, poor fit]"
15,O=[N+]([O-])c1cc(S(=O)(=O)NCCN2CCOCC2)ccc1Sc1nnnn1-c1ccccc1,active: 20 µM
16,CCN(CC)S(=O)(=O)c1cc([N+](=O)[O-])ccc1NNC(=O)Nc1ccc(Cl)c(Cl)c1,inactive
17,CC(C)OCCCn1c(-c2ccc(Br)cc2)c[nH]c1=S,"inconclusive: 14.1 µM [inhibitor, partial curve, poor fit]"
18,COc1ccc(CC2c3cc(OC)c(OC)cc3CC[N+]2(C)CCC(=O)OCCCCCOC(=O)CC[N+]2(C)CCc3cc(OC)c(OC)cc3C2Cc2ccc(OC)c(OC)c2)cc1OC (stereo not given),"inconclusive: 79.4 µM [inhibitor, single point]"
19,CCOc1cc(C(Nc2cc(C)ccn2)c2ccc3cccnc3c2O)ccc1OC (stereo not given),active: 1.26 µM
20,O=C(/C=C/c1cnc2ccccc2n1)NC12CC3CC(CC(C3)C1)C2,inactive
21,CC(C)c1nc(CNC(=O)CC2C(=O)NCCN2Cc2ccc(F)cc2Cl)cs1 (stereo not given),"inconclusive: 89.1 µM [inhibitor, single point]"
22,Cn1nnc(NC(=S)NC(=O)c2cccc3c(Cl)cccc23)n1,"inconclusive: 56.2 µM [inhibitor, partial curve]"

row,Structure (SMILES),Potency
1,CCn1c(SCC(=O)c2cccs2)nnc1-c1ccco1,"inconclusive: 25.1 µM [inhibitor, partial curve, poor fit]"
2,CCCCn1c(NC(=O)c2ccccc2Cl)c(C#N)c2nc3ccccc3nc21,"inconclusive: 89.1 µM [inhibitor, single point]"
3,COC(=O)C(=Cc1ccc(OCc2ccc([N+](=O)[O-])cc2)c(OC)c1)C(=O)OC,"inconclusive: 28.2 µM [inhibitor, full curve, poor fit]"
4,Cc1ncc(CO)c2c1Oc1nc(-c3ccccc3)nc(SCC(=O)N3CCCCC3)c1C2,"inconclusive: 17.8 µM [inhibitor, full curve]"
5,CS(=O)(=O)Nc1ccc(C2=NN(S(=O)(=O)c3ccc(F)cc3)C(c3ccco3)C2)cc1 (stereo not given),"inconclusive: 44.7 µM [inhibitor, partial curve, poor fit]"
6,COc1cc(CN2CCc3ccc(NC(=O)CCc4ccccc4OC)cc3C2)ccc1O,"inconclusive: 56.2 µM [inhibitor, partial curve]"
7,Cc1ccc([C@@H]2[C@@H]3C(=O)N(c4ccccc4)C(=O)[C@@H]3[C@]3(C)C(=O)N(Cc4ccccn4)CC(=O)N23)o1,"inconclusive: 50.1 µM [inhibitor, partial curve]"
8,O=C(Nc1nc2c(s1)CCCC2)c1ccc(Br)o1,inactive
9,COc1ccccc1NC(=O)CN(Cc1ccco1)C(=O)c1ccc(N2CCCC2=O)cc1,inactive
10,N#CC1=C(N)Oc2cc(O)ccc2C1c1ccc(Br)s1 (stereo not given),"inconclusive: 28.2 µM [inhibitor, partial curve, poor fit]"
11,c1ccc(-n2c(-c3ccncc3)nnc2-c2ccco2)cc1,"inconclusive: 17.8 µM [inhibitor, single point]"
12,CCN(CC(=O)NCc1cccs1)C(=O)CCC(=O)c1ccc(C)cc1,inactive
13,CCN1CCN(c2ncc(C(=O)N3CCN(c4ccccc4OC)CC3)c3ccccc23)CC1,"inconclusive: 3.16 µM [inhibitor, single point]"
14,Cc1c(C(=O)NCc2ccoc2)oc2ccc3c(c12)C(=O)CC(C)(C)O3,"inconclusive: 50.1 µM [inhibitor, partial curve]"
15,CCOc1ccc(CN2CCNC(=O)C2CC(=O)N(C)Cc2nonc2C)cc1 (stereo not given),"inconclusive: 79.4 µM [inhibitor, partial curve]"
16,Cc1onc(-c2c(F)cccc2Cl)c1C(=O)Nc1cccc2nsnc12,inactive
17,Cc1nn(Cc2ccccc2)c(C)c1C(=O)NCCN1C(=O)S/C(=C\c2ccccc2)C1=O,"inconclusive: 89.1 µM [inhibitor, single point]"
18,CCCCCCC(C)NC(=S)Nc1cc(S(=O)(=O)N(C)C)ccc1C (stereo not given),"inconclusive: 44.7 µM [inhibitor, partial curve]"
19,COc1ccc2c(c1)/C(=C\c1cccc(/C=C3/C(=O)Nc4ccc(OC)cc43)n1)C(=O)N2,"inconclusive: 89.1 µM [inhibitor, single point]"
20,Cc1ccc2cc(CN(CCCN3CCOCC3)C(c3nnnn3Cc3ccco3)C(C)C)c(=O)[nH]c2c1C (stereo not given),active: 10 µM
21,C[C@H]1CCC[C@]2(C)C[C@H]3OC(=O)C(CN4CCCCCC4)[C@H]3C=C12 (stereo not given in full),"inconclusive: 89.1 µM [inhibitor, partial curve, poor fit]"
22,COc1ccc(/C=C(\C#N)c2nc3ccc(C)cc3[nH]2)cc1Oc1ccc(C(F)(F)F)cc1[N+](=O)[O-],inactive

row,Structure (SMILES),Potency
1,O=C(Nc1cccc2cccnc12)c1ccc(-c2cccc(Cl)c2)o1,inactive
2,COc1ccc(CNCc2ccc3c(c2)OCO3)c(OC)c1OC,"inconclusive: 31.6 µM [inhibitor, single point]"
3,CC(=O)Cn1c(C(F)(F)F)nc2ccccc21,"inconclusive: 39.8 µM [inhibitor, single point]"
4,CN1CCc2c(sc3nc(SCC(=O)N4CCCCC4)n(-c4ccccc4)c(=O)c23)C1,"inconclusive: 39.8 µM [inhibitor, full curve]"
5,COc1cc(/C=N/NC(=O)Cn2cnc3ccccc3c2=O)ccc1O,inactive
6,O=C(Cn1nc(-c2ccco2)ccc1=O)Nc1cc(Cl)ccc1Cl,"inconclusive: 39.8 µM [inhibitor, partial curve]"
7,Cc1onc(-c2ccccc2)c1C(=O)O/N=C(\N)c1ccc([N+](=O)[O-])o1,"inconclusive: 44.7 µM [inhibitor, partial curve]"
8,O=S(=O)(NCC1CCN(c2ccc(S(=O)(=O)N3CCOCC3)cc2)CC1)c1ccccc1,inactive
9,COc1cccc(CNC(=O)COC(=O)c2cc(Br)c(Br)s2)c1,"inconclusive: 25.1 µM [inhibitor, partial curve]"
10,COc1cccc(Nc2nc3c(S(=O)(=O)c4cc(C)ccc4C)nnn3c3ccsc23)c1,inactive
11,O=c1[nH]n2c(=O)c3c([nH]c2c1N=Nc1cccc(C(F)(F)F)c1)CCCC3,inactive
12,CN(C)/C=N/c1nc(Sc2ccc(C(F)(F)F)cc2[N+](=O)[O-])n[nH]1,inactive
13,O=C(Oc1oc(-c2ccco2)nc1C=Nc1ccccc1)c1ccco1,active: 2.24 µM
14,CC(C)c1ccc2c(c1)c(SC(C)(C)C)c(CC(C)(C)C(=O)O)n2Cc1ccc(Cl)cc1,"inconclusive: 44.7 µM [inhibitor, partial curve] and inconclusive: 39.8 µM [inhibitor, single point]"
15,CCOc1ccc(Nc2oc(/C=C/c3ccc(OC)c(OC)c3)nc2C#N)cc1,inactive
16,CN(C)CCCNC(=S)N(Cc1cccs1)Cc1cc2cc3c(cc2[nH]c1=O)OCCO3,"inconclusive: 50.1 µM [inhibitor, partial curve]"
17,Cc1cccc(NC(=O)CSc2nnc(-c3cnccn3)n2Cc2ccco2)c1,"inconclusive: 22.4 µM [inhibitor, single point]"
18,COc1ccc(NC(=O)C(NS(=O)(=O)c2cccc3nsnc23)C(C)C)cc1OC (stereo not given),inactive
19,COc1ccc(C(C)=O)cc1COC(=O)CNC(=O)c1cc(C)cc(C)c1,"inconclusive: 2.82 µM [inhibitor, partial curve, poor fit]"
20,c1cn2c(NC3CCCCC3)c(-c3ccc(SC4CCCCC4)cc3)nc2cn1,inactive
21,Oc1ccc(NCc2ccccc2OCc2ccccc2)cc1,"inconclusive: 44.7 µM [inhibitor, partial curve]"
